Reference: PubChem BioAssay AID485344 (National Center for Advancing Translational Sciences (NCATS), 2010)
“And” between values parts separate entries of the source, which are not always exact repeats. Equal values may be shown once. Out of some 340,000 compounds screened, about 6,900 (2%) were called active. Cut-off read from the data, not from the text of the source: active = inhibition above about 30%; inactive = below that, where a call was filed. The list shows a part of the results, in another mix than the full data. The source gives no active or inactive call for entries shown without one.

These molecules were tested against D(2) dopamine receptor (Homo sapiens) (UniProt P14416) (assay: HTS Assay for Allosteric Antagonists of the Human D2 Dopamine Receptor: Primary Screen for Antagonists). Conditions: HEK293 TREx D2 cells, calcium flux, dopamine EC80; at 10 µM; stronger effect = higher value.
Sequence of UniProt P14416 (P14416 whole entry, looked up): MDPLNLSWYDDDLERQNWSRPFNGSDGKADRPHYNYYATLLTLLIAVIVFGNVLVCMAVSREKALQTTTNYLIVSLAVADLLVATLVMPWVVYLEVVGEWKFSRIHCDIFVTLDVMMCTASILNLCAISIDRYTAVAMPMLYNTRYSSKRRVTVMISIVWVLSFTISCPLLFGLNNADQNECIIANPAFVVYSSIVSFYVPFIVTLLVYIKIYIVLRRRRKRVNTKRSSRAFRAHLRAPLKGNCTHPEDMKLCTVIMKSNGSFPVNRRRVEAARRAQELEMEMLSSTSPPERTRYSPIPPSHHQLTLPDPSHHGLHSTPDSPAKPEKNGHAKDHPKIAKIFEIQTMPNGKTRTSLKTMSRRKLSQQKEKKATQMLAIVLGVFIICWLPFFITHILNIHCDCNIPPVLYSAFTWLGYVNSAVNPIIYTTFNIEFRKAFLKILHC
Method in brief: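 Calcium mobilization kinetics were recorded at 1 s intervals in tetracycline-induced HEK293 T-REx D2 cells, first for 180 s after compound addition and then 180 s after EC80 dopamine.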
Note: 0% is about no effect.

Compound	inhibition
Oc1ccccc1-c1nc2ccc(Cl)cn2c1Nc1ccc2c(c1)OCCO2	5.03%
CCS(=O)(=O)N1CCc2cc(C(=O)Nc3cccc(NC(C)=O)c3)ccc21	7.95%
COc1ccc(-c2ccc(=O)n(CC(=O)Nc3ccccc3C(F)(F)F)n2)cc1	-11.8%
CCc1ccc(CNC(=O)c2ccc(-n3c(C)cc4c3CCC(C)C4)cc2)cc1 (configuration not stated)	5.34%
COc1cc(Br)c(C2CC(=O)Nc3cc4c(cc32)OCCO4)cc1OC (configuration not stated)	-3.07%
Cc1ccc(S(=O)(=O)Nc2ccc3c(c2)CCCN3C(=O)c2cccs2)cc1C	11.3%
Cc1cccc(NC(=O)C(Cc2ccccc2)N2Cc3ccccc3C2=O)c1C (configuration not stated)	-9.25%
CCc1ccc(NC(=O)c2ccc(F)c(S(=O)(=O)N3CCc4ccccc4C3)c2)cc1	-1.42%
Cc1c(Cl)cccc1NC(=O)CC1NCCNC1=O (configuration not stated)	active: 33.6%
CCc1nn(CC(=O)NCCN(CC(C)C)CC(C)C)c(=O)c2cc3sc(C)cc3n12	8.78%
Cc1cc(C)cc(NC(=O)C2CCN(c3cnccn3)CC2)c1	active: 33%
COc1ccc(CNC(=O)Cn2c(=O)n3nc(-c4cccc(F)c4)nc3c3ccccc32)cc1OC	19%
Cc1cc(C)c(C#N)c(N2CCN(CCOc3ccc(Cl)cc3)CC2)n1	active: 121%
COc1ccc(CNC(=O)C2=Cc3cccc(OC)c3OC2)cc1OC	15.8%
COc1ccc(OC)c(NS(=O)(=O)c2ccc3c(c2)CCCN3C(=O)C2CCC2)c1	19.9%
CCc1cc(=O)oc2c(C)c3c(cc12)CN(CCc1ccccc1)CO3	-17.9%
O=C(Nc1ccc(F)cc1F)c1cc(CN2CCOCC2)on1	3.56%
CNC(=O)c1ccc(-c2sc3nc(N4CCOCC4)c4c(c3c2N)CC(C)(C)OC4)o1	active: 40.6%
CCc1cc2c(cc3c(=O)n(CC(=O)NC(C)C)nc(CC)n32)s1	-8.63%
COc1ccc(CNC(=O)CSCc2ccc(C)cc2)c(OC)c1	3.05%
Cc1ccc(NS(=O)(=O)c2ccc(-c3cc(C)no3)cc2)c(C)c1	5.96%
CCC1CCCCN1CCCNC(=O)c1sc2nc(C)cc(C)c2c1-n1cccc1 (configuration not stated)	-0.97%
CCCN(CCC)CCCNC(=O)c1sc2nc3n(c(=O)c2c1C)CCC3	-6.28%
Cc1nn(CC(=O)Nc2ccc(Br)cc2F)c(=O)c2cccn12	active: 47.2%
O=C(NCC(c1ccc2c(c1)OCO2)N1CCOCC1)C(=O)Nc1ccc(Cl)cc1 (configuration not stated)	-25.5%

Compound	inhibition
Cc1cc(NC(=O)Nc2ccccc2)n(-c2ccccc2)n1	active: 31.4%
Cc1ccccc1OCCSc1nnc(-c2ccc([N+](=O)[O-])cc2)o1	-15.9%
Oc1cccc(-c2nc(-c3cccs3)c(-c3cccs3)[nH]2)c1	25.7%
Cc1cccc(OC(=O)c2nc(SCc3ccccc3F)ncc2Cl)c1	19.3%
Cc1nn(C)c(C(=O)NCc2ccc(Cl)cc2)c1Cl	active: 44.4%
CCOC(=O)c1ccc(NC(=O)Cn2cc(C(=O)c3cccs3)c3ccccc32)cc1	6.56%
Cc1ccc(Nc2nc3c(S(=O)(=O)c4ccccc4)nnn3c3ccc(Cl)cc23)c(C)c1	0.971%
COc1cc2nc(Nc3ccc(C)c(C)c3)nc(N)c2cc1OC	0.751% and active: 30.4%
Cc1nc2ccn(Cc3cccs3)c(=O)c2cc1C(=O)NCc1ccc(Cl)cc1	-8.7%
CC(CC(=O)NCc1ccc(Cl)cc1Cl)CC1=NS(=O)(=O)c2ccccc2N1 (configuration not stated)	-7.04%
COc1ccc(CCNC(=O)c2cc(=O)c3c(C)cc(C)cc3o2)cc1OC	1.11%
COc1cc2c(cc1OC)n(CC(=O)Nc1ccccc1)c(=O)n1nc(-c3ccccc3)nc21	11.3%
COc1ccccc1NC(=O)C1=C(C)Nc2c(C(=O)Nc3cccc(C)c3)cnn2C1c1ccccc1C (configuration not stated)	8.61%
O=C(CCn1c(=O)c2cccn2c2cccnc21)NCc1ccc(Cl)cc1	9.22%
COC(=O)c1ccc(NC(=O)C(=O)NCCc2sc3nc(-c4ccc(OC)cc4)nn3c2C)cc1	7.48%
CCN(CC)C(=O)Cn1c(=O)n(CC(=O)N2CCCCC2)c(=O)c2sccc21	active: 33%
Cc1ccc(/C=C/c2nc3ccccc3n2S(=O)(=O)c2cccc(Cl)c2)cc1	-12%
CCOc1ccc(C(=O)NNC(=O)CN2C(=O)NC3(CCCC3)C2=O)cc1	active: 42.1%
CN1c2ccccc2C(C)(C)C12C=Nc1c(ccc3ccccc13)O2 (configuration not stated)	active: 34.4%
CCN(CC)C(=O)C1CCN(c2cc(C)nc3c(-c4ccc(OC)c(OC)c4)c(C)nn23)CC1	-6.26%
Cn1c(C(=O)N2CCCC(C(=O)N3CCN(c4ccccc4)CC3)C2)cc2sccc21 (configuration not stated)	17.6%
CCCCNC(=O)CSC1=Nc2ccccc2C2=NC(CCC(=O)NCc3ccccc3OC)C(=O)N12 (configuration not stated)	18.4%
CCc1ccc(NC(=O)CSc2cn(CC(=O)N3CCOCC3)c3ccccc23)cc1	0.892%
COc1ccc(NC(=O)Cn2c(=O)n(-c3ccc(C)c(C)c3)c(=O)c3c4c(sc32)CCCCC4)cc1Cl	-1.64%
CCc1ccc(CNc2ncnc3onc(-c4ccc(Cl)cc4)c23)cc1	17.4%

Compound	inhibition
CCCCOC(=O)c1c(C)oc2ccc(NS(=O)(=O)c3ccc(F)cc3C)cc12	8.28%
CCOc1ccc(CN(C(=O)c2cc(=O)c3cc(Cl)ccc3o2)C2CCS(=O)(=O)C2)cc1 (configuration not stated)	8.49%
COc1ccc(-c2cc(C(F)(F)F)n3nc(C(=O)Nc4sc5c(c4C(=O)OC(C)C)CCCC5)cc3n2)cc1OC	-0.065%
COc1ccc(N2CCN(C(CNC(=O)c3cccc(OC)c3)c3cccnc3)CC2)cc1 (configuration not stated)	-15.1%
O=C(CSc1oc(-c2ccc(F)cc2)nc1S(=O)(=O)c1ccc(Cl)cc1)c1ccccc1	-8.31%
COc1cccc(-c2cn3c(n2)sc2cc(C(=O)NCCC4=CCCCC4)ccc23)c1	-27.7%
Cc1ccc(CN2CCN(c3ncccn3)CC2)o1	active: 85.7%
O=[N+]([O-])c1cccc(-c2ccc(CN3CCN(c4ccccc4)CC3)o2)c1	active: 46.8%
CC(=O)c1ccccc1OCCCCN1CCCCC1	active: 58.5%
O=C(c1ccc2c(c1)N(Cc1cccc(Cl)c1)C(=O)c1ccccc1S2(=O)=O)N1CCCCCC1	2.12%
Cc1ccc(NC(=O)C2CCN(C(=O)c3cnn(-c4ccccc4)c3-n3cccc3)CC2)cc1C	-7.99%
O=C(CN1CCCN(Cc2cccc(F)c2)S1(=O)=O)Nc1ccc2c(c1)OCCO2	10.9%
Cc1cccc(-c2nc(C)c(CCNC(=O)c3cccs3)s2)c1	10.9%
O=C(NCC(c1cccnc1)N1CCc2ccccc2C1)C(=O)Nc1ccc(F)cc1F (configuration not stated)	16.2%
CCS(=O)(=O)c1ncc(Cl)c(C(=O)Nc2c(C(=O)c3ccc(C)cc3)oc3ccccc23)n1	6.58%
Cc1ccc(-n2ncc(C(=O)N3CCN(C(=O)c4ccco4)CC3)c2C2CCN(C(=O)OC(C)(C)C)CC2)cc1	-6.6%
COC(=O)c1nnn(-c2ccc(Cl)cc2)c1C(=O)OC	-3.26%
O=C(CCS(=O)(=O)c1nc(-c2ccc3c(c2)OCO3)cc(C(F)(F)F)n1)Nc1ccc(F)cc1F	-10.9%
C=C(C)Cn1c(SCC(=O)Nc2cccc(C)c2)nc2sc3c(c2c1=O)CCCC3	25.2%
COc1ccc(C(=O)c2c(C(F)(F)F)oc3c2C(=O)c2ccccc2C3=O)cc1OC	active: 30.6%
Cc1cccc(N(CC(=O)NCCSc2ccc(Cl)cc2)S(C)(=O)=O)c1C	4.21%
Cc1ccc2c(c1)N(C(=O)N1CCC(C(=O)NCc3cccs3)CC1)CC(C)O2 (configuration not stated)	-15.8%
COc1ccc(CNC(=O)c2cc3c(=O)[nH]c4ccccc4c3n2C)c(OC)c1	5.31%
COc1ccc(CCNC(=O)CCCn2c(=O)c3ccccc3n(CC(=O)Nc3ccc(C)cc3Cl)c2=O)cc1OC	-10.5%
CC(NC(=O)CN1C(=O)COc2ccc(Cl)cc21)c1ccccc1 (configuration not stated)	27.8%

Compound	inhibition
CCOc1cc(C2CC(=O)Nc3nc(SCc4ccccc4)[nH]c(=O)c32)ccc1O (configuration not stated)	5.31%
O=C(Nc1cccc2cccnc12)c1ccc(F)cc1	5.91%
CCc1ccc2oc(-c3ccc(NC(=O)c4cc(OC)c(OC)c(OC)c4)cc3)nc2c1	-1.89%
Cc1ccccc1-c1nnc(C2CCN(S(=O)(=O)c3ccc(Cl)cc3)CC2)o1	-3.62%
CCc1ccc(CNC(=O)CCCN2C(=O)c3cccnc3Oc3ccc(Cl)cc32)cc1	9.21%
Cn1cnc(S(=O)(=O)N2CCC(C(=O)NCc3ccc(Cl)cc3)CC2)c1	-0.003%
COc1ccc(CNC(=O)c2cc3c(=O)n(C)c4ccccc4c3n2C)cc1	-0.149%
COCCNC(=O)c1nn(-c2ccc(Cl)cc2)nc1CO	-26.8%
O=C(CSc1ccccc1)NCc1ccc2c(c1)CCN2C(=O)c1ccc(F)cc1	-22.1%
O=C(Cc1ccccc1)N(Cc1cccnc1)c1nc2ccc(F)cc2s1	-0.236%
CCCSCCCNC(=O)c1ccc2c(c1)nc1n2CCCCC1	7.68%
Cc1ccc(Nc2cc(C)c(C#N)c3nc4ccccc4n23)cc1Cl	-4.8%
CC(C)c1cc(-c2nc(-c3ccccc3)no2)n[nH]1	-1.28%
Nc1cc(Cl)ccc1C(=O)OCC(=O)NC1CCCCCCC1	active: 34.5%
COc1ccc(S(=O)(=O)N2CCN(Cc3ccc4c(c3)OCO4)CC2)cc1OC	10.4%
CN(CC(=O)Nc1ccccc1Cl)S(=O)(=O)c1ccc(C(=O)N2CCOCC2)s1	16%
CC(C)c1ccccc1NC(=O)CN1C(=O)c2cccc3cccc1c23	2.34%
CCC(=O)Nc1ccc2nc(SCc3ccc(C)cc3)sc2c1	-13.3%
Cc1nc(N2CCCC2)c2c(C(=O)N3CCN(c4cccc(C)c4C)CC3)c(C)oc2n1	3.08%
O=C(CSc1nc(-c2ccccc2)[nH]c1-c1ccccc1)Nc1ccc2c(c1)OCCO2	16.5%
CC1(C)Cc2cccc(C(=O)NC3CCN(Cc4ccccc4)CC3)c2O1	active: 73.4%
CC(C)(C)c1ccc(S(=O)(=O)NCc2nc3cccnc3n2Cc2ccccc2Cl)cc1	-5.3%
